Results reported in the supplement of paper PMC10126150.
Sequences with one replicate were seen in a single cluster, so their values are uncertain.

System: ATP
Test: switch fluorescence ratio, 500 uM ATP over buffer (Cy3 cluster intensity, sum of 5 cycles each) (fold (ratio)); higher = stronger signal-on switching upon ATP binding; sequences stand for … in TCGTCGGCAGCGTCAGATGTGTATAAGAGACAGTTTTTTTTTTTTTTTTTTTTTTTTT…TC
Details: aptamer strand: ATP DNA aptamer (quencher-CACCTGGGGGAGTATTGCGGAGGAAGG + anchor), 100 nM annealed; ATP concentration: 500 uM; one replicate
Summary of the method: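 Per cluster, summed Cy3 intensity from the target cycles was divided by that from the buffer cycles to give the fluorescence ratio, then averaged per switch-domain sequence. Clusters outside 100-1000 RFU were excluded. The Cy3-labelled switching-strand clusters, on a modified Illumina MiSeq flow-cell, were annealed to 100 nM quencher-labelled ATP aptamer and imaged in selection buffer, then after 15 min with 500 uM ATP at 22 °C, for five cycles with NaOH stripping and re-annealing between them.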
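Further: ATP exposure 15 min at 22 °C before imaging.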

Row | Sequence | switch fluorescence ratio
1 | GTTGTAAGAA | 1.01
2 | GTCGGGCCTA | 1.04
3 | GGTCGAGGAA | 0.964
4 | TCACGTGGAA | 1.09
5 | CTTCGGGTTC | 1.01
6 | CCCGCCCATG | 1.35
7 | GAAGACCCGC | 1.07
8 | TTAGACCAGT | 1.05
9 | CTGGTGGGTG | 0.988
10 | CGGCGTTGAA | 0.986
11 | CCGCCGGGAA | 1.5
12 | TGCGAAGAGT | 0.971
13 | TTGCTGTAGT | 0.97
14 | TGCGGGTTCT | 1.02
15 | TCAACGAGCG | 0.987
16 | TTCCCATATG | 1.53
17 | GTTGGCTCAG | 1.03
18 | CTTGGACAGG | 1.01
19 | ATCTGCGCTT | 1.11
20 | TCTGGACCGA | 0.998
21 | GAGGTGAGGT | 0.978
22 | AATCGATATA | 1.03
23 | TGCACGAGTA | 0.993

Row | Sequence | switch fluorescence ratio
24 | AAGGTTTTG | 0.966
25 | CGGGGAAGG | 1.05
26 | TAGTCCATTT | 0.972
27 | CTGCTAACG | 1.05
28 | CTAAGCACAA | 1.13
29 | AATTACTATA | 1.14
30 | CACGTAGTCC | 1.06
31 | TAGGTGGGAG | 0.99
32 | GTAGAACGAT | 1.03
33 | AATTCTAAAG | 1.01
34 | TTGTGCGGGG | 0.981
35 | TAACCCCTGG | 1.17
36 | ATTTTGGCGG | 1.06
37 | AACAGGCTGA | 0.975
38 | AAACGGGGAA | 1
39 | GAGTGCTGCG | 1
40 | GCGATGTAGC | 1.07
41 | AGGAATCCTA | 1.03
42 | AGATAACCTG | 1.03
43 | GAGTCGTCTA | 0.957
44 | TCATGAATGG | 1.01
45 | TAGCAACAAG | 1.01
46 | AAATCTATCG | 0.981

Row | Sequence | switch fluorescence ratio
47 | GAGGTGAACC | 0.934
48 | GCGTCTGGTG | 0.993
49 | ATTGACTTAG | 1.03
50 | TTCCACTGGG | 1.1
51 | GCTTGTACCG | 1.04
52 | CAGGTGCGAG | 1.01
53 | ACCCTATCGT | 1.08
54 | AATGTGACTG | 0.98
55 | ATAAAGTAAT | 1.02
56 | TGAGAGGGAA | 0.965
57 | CTCTATTATA | 1
58 | AAATAGTACT | 1.01
59 | TGCTTTGACG | 1.03
60 | GGGGAGTCTG | 0.984
61 | ACCTCGGACG | 1.07
62 | TTTAGTAATC | 1.04
63 | GGTCCCCTGA | 0.995
64 | GTCATCTGTA | 0.998
65 | TGTTACCGGA | 1.09
66 | TACTTGTCGT | 0.964
67 | GGGGTATTAA | 1.02
68 | CTTGCTTGGA | 1.02
69 | CAGAATGGTA | 0.929

Row | Sequence | switch fluorescence ratio
70 | CAATAAGAGT | 1.02
71 | GTGCTTGATT | 0.978
72 | CCAGGTCCAC | 1.03
73 | GCTGAGTTGC | 1
74 | TATCCAAAAT | 1.05
75 | AATTGATCAG | 0.977
76 | AACCAGGAAT | 1.14
77 | GTATCCCGTA | 1.05
78 | AGAGTGGGTC | 0.925
79 | CGTTAGCAGG | 1.05
80 | TGATAATAAC | 1.04
81 | CAGATGGGTT | 1.01
82 | CCAATCCGGG | 1.03
83 | TAGGCGTC | 1.02
84 | ATTGACCTC | 1.05
85 | CAATGTAAGT | 1.01
86 | TGGCCTAAC | 1.06
87 | TGATGTATGG | 1.04
88 | CGGTTAAGCC | 0.95
89 | TCTCGTAATA | 3.15
90 | CGAACGTACA | 1.9
91 | AACTTGGTG | 1
92 | GATATTACTT | 0.977

Row | Sequence | switch fluorescence ratio
93 | ATCGATCGGG | 0.968
94 | TTTCACGGCG | 0.986
95 | GTCGCTCATG | 1.03
96 | TTTTATTCAA | 0.993
97 | GCCAAATAAT | 0.969
98 | GAATTGCATA | 0.988
99 | GGGGGCGAAG | 1.03
100 | GATTGCCCGA | 1
101 | AATCGTATGC | 1.01
102 | TAGTATATTC | 0.972
103 | CGGCCATATG | 1.02
104 | CCCTGGAATG | 1.09
105 | TAGGTTCGAT | 1.01
106 | TGCTGACACG | 1.04
107 | CTAATTAGTC | 1
108 | CCCAGGCACA | 1.37
109 | ACTGAGTCTT | 1.05
110 | TACGTTGCGA | 1.02
111 | TAGGCGAGTC | 1.05
112 | GGTCCCAAAC | 1.05
113 | GGTGACGCAT | 1.19
114 | TAGGTTCCTC | 1.06
115 | CTGTGAGACT | 1.12

Row | Sequence | switch fluorescence ratio
116 | TTCGTAGAGT | 0.955
117 | GGGAACAAAC | 0.944
118 | CATAGAACAG | 1.02
119 | AGCGGTCCG | 0.988
120 | TATTACATTA | 1.04
121 | GCGTAACGCA | 1.03
122 | GTCAACATGT | 1.02
123 | CATGGACACT | 1
124 | CGCGCTCACT | 1.34
125 | TTACAATTAA | 1.05
126 | ACTGAAATTT | 1.01
127 | TATTGATCCA | 1.03
128 | AAGCCTGTA | 0.988
129 | CAGACTTACT | 1.19
130 | GCTGATGCTG | 1
131 | ATTATAGCTG | 1
132 | CCTTGGTAGT | 1.04
133 | AGAATAGACA | 1.01
134 | GCTCACAGCG | 0.994
135 | TTACACAGG | 1.19
136 | TACGCTCGAA | 1.01
137 | CCCGCTTGCC | 1.4
138 | ATTTTTTTGG | 1.02

Row | Sequence | switch fluorescence ratio
139 | ACATATAC | 1.34
140 | GTGCAGTC | 1.45
141 | CCTTTAACAT | 1.01
142 | TGCTTTCCGT | 1.05
143 | AGTTTTAATG | 0.985
144 | TTGTACACTG | 1.01
145 | CGTAATGCAT | 1.02
146 | AATACAGTTC | 0.993
147 | GCTCATGAGG | 0.96
148 | CCAGGGTGGC | 1.28
149 | GAATACGTGG | 0.952
150 | TTTAGGAGCA | 1.03
151 | TTTCTAAAC | 0.992
152 | CCAGGTGCTG | 1.82
153 | TCCTTATCGA | 1
154 | TTCGAGTTAA | 0.996
155 | AGCATGGCGC | 1.02
156 | TGTAGATTGG | 0.964
157 | AGATTTGAAG | 0.978
